Measured values from PubChem BioAssay AID1345083 (National Center for Advancing Translational Sciences (NCATS), 2018).
Values joined by “and” are separate entries in the source; they are usually repeats but may differ in a detail not shown here. Equal entries are not always repeated. Hit rate of the full screen: of about 94,000 compounds, about 6,200 (6.6%) were called active. Inconclusive means that the source gave no clear call. Such entries were picked first, then a sample of the others. Calls come from the whole dose curve; as a rule, active = well fitted inhibition curve with a large enough effect; inconclusive = small, poorly fitted or top-dose-only effect; inactive = flat fitted curve, though single readings scatter. Potencies beside an inconclusive call are fits to weak or partial responses and may not hold up.

Test: Cytotoxic Profiling in HEK 293 Cell Line of Diverse Libraries Using Quantitative High-Throughput Screening; note: nearly all actives have a fitted effect of over 60% in size
Details: HEK 293 viability, ATP luminescence (CellTiter-Glo), 48-72 h; series mostly up to 115 µM
Outline: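 HEK 293 cells seeded at 250 cells/well were exposed to compound for 48 or 72 hr at 37 degree Celsius. Viability taken as ATP content by CellTiter-Glo luminescence.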
Potency is the fitted concentration of half-maximal effect; tags give direction and shape of the fitted curve.

Row | SMILES | Potency
1 | Cc1cnc(C(=O)NC2C[C@H]3CC[C@@H](C2)N3C(=O)c2ccc(OC(C)C)cc2)cn1 (stereo partly drawn) | inconclusive: 89.1 µM [inhibitor, single point]
2 | O=C(NCc1ccc(Cl)cc1)c1ccc(N2CC3CC(C2)[C@H]2CCCC(=O)N2C3)nc1 (stereo partly drawn) | inconclusive: 89.1 µM [inhibitor, single point]
3 | Cc1ccccc1Nc1cnc2ccc(-c3cccc(CO)c3)nn12 | active: 79.4 µM
4 | CN(CC(=O)N1CCC(CCOc2ccccc2F)C1)S(=O)(=O)c1ccc2c(c1)oc(=O)n2C (stereo not drawn) | active: 39.8 µM
5 | Cc1ccc2nc(C3CCCN(Cc4ccc(C#N)cc4)C3)[nH]c(=O)c2c1 (stereo not drawn) | inconclusive: 56.2 µM [inhibitor, partial curve, poor fit] and inconclusive: 44.7 µM [inhibitor, partial curve, poor fit]
6 | COCCOC1CN(C2CCN(CC3CCCCC3)CC2)C12CCCCC2 (stereo not drawn) | inconclusive: 8.91 µM [inhibitor, full curve, poor fit]
7 | O=C(NCCN1CCCCC1)c1ccc(-c2nnc3ccc(NC(=O)C4CCC4)cn23)cc1 | inactive
8 | Cc1cc(C)c2[nH]c(C(=O)N3CCCC3c3nc4ccccc4[nH]3)c(C)c2c1 (stereo not drawn) | inconclusive: 44.7 µM [inhibitor, partial curve, poor fit]
9 | O=C1CCN(Cc2cccc(F)c2)CCCC(c2nc(-c3cccnc3)no2)CCN1 (stereo not drawn) | active: 79.4 µM
10 | O=C(Nc1cccc(F)c1)N1CC(Oc2ccc(-c3nc(-c4ccccc4)no3)cc2)C1 | inconclusive: 10 µM [inhibitor, full curve, poor fit]
11 | Cc1ccc(C(CC(=O)N2CCCCC2)c2cn(C)c3ccccc23)cc1 (stereo not drawn) | active: 50.1 µM
12 | COC(=O)c1cccc2nc([C@H]3CCN(Cc4ccccc4C)C3)oc12 | active: 89.1 µM
13 | O=C(N1CCCC(c2nnnn2-c2ccccc2)C1)C1(c2ccccc2)CC1 (stereo not drawn) | inactive
14 | CC1(C)[C@H](Cc2cc(COc3ccccc3)on2)C[C@@H]1NC(=O)Cc1ccccc1 | active: 56.2 µM
15 | O=C(Nc1ccc([C@@H](O)[C@H]2COCC(=O)N2Cc2ccccc2F)cc1)C1CCCCC1 | inconclusive: 39.8 µM [inhibitor, partial curve]
16 | O=C(C1CCN(c2ccnc3ccnn23)CC1)N1CCCCC1 | inconclusive: 79.4 µM [inhibitor, partial curve]
17 | O=C(CC1CCCN(c2cnn(CC3CC3)c(=O)c2)C1)NCc1cccc(F)c1 (stereo not drawn) | inconclusive: 89.1 µM [inhibitor, single point]
18 | COc1ccc(OC)c(C2CCN(c3ncncn3)C2)c1 (stereo not drawn) | inconclusive: 12.6 µM [inhibitor, full curve]
